Test results published in PubChem BioAssay AID463173 (ICCB-Longwood Screening Facility, Harvard Medical School, 2010).
Screen size: about 52,000 compounds; about 4,300 (8.3%) were called active. No stated cut-off is given here; in the data, active means survival mostly below about 52% (no sharp cut-off); inactive means mostly above about 56%. This is one part of the list.

The molecules below were run on DeltatarO mutant (assay: growth inhibition of S. aureus wild type versus tarO mutant, primary screen, teichoic acid synthesis inhibitors, RN4220, OD600 (AID 463173)). Conditions: OD600, 18 h, hits give low values, screened at 18.75 µg/mL (by protocol).

SMILES	survival
CN(C(=O)CCc1ccccc1)c1nnc(-c2ccncc2)s1	inactive: 99%
CCC(=O)N1CCc2cc(Br)cc(S(=O)(=O)N3CCCC(C(=O)NCc4cccc(OC)c4)C3)c21 (stereo unspecified)	inactive: 122%
Cc1nc2c(-c3ccccc3)c(C)nn2c(C)c1CCC(=O)N1CCN(c2ccccc2)CC1	inactive: 88%
Cn1nc(C(=O)N2CCN(c3cccc(Cl)c3)CC2)c2c1-c1ccccc1S(=O)(=O)C2	active: 37%
CCCCCn1c(NCc2ccccc2OC)nc2ccccc21	active: -1%
CCCS(=O)(=O)c1ncc(Cl)c(C(=O)Nc2c(C(=O)c3ccccc3)oc3ccccc23)n1	inactive: 102%
CCc1cc2c(cc3c(=O)n(CC(=O)N4CCC(C)CC4)nc(CC)n32)s1	active: 41%
CCN(CC)S(=O)(=O)c1ccc2c(c1)c(=O)c(C(=O)NCc1ccc(Cl)cc1)cn2C	inactive: 63%
COc1ccc(CC(=O)NCc2ccc3c(c2)CCN3C(C)=O)cc1OC	inactive: 99%
COc1cccc(CNC(=O)C2Cc3cc(S(=O)(=O)N4CCCCCC4)ccc3N2C(C)=O)c1 (stereo unspecified)	inactive: 97%
CCSc1nnc(C2CCCN(C(=O)C3CCC(OC)CC3)C2)n1C (stereo unspecified)	inactive: 83%
CCOC(=O)C1CCN(C(=O)c2ccc3c(c2)sc2nc(-c4ccccc4)cn23)CC1	active: 54%
COc1cccc(CN(Cc2ccc3c(c2)OCO3)S(=O)(=O)c2ccc(-n3cnnn3)cc2)c1	inactive: 86%
Cc1c(C(=O)N(C)C)sc2c1c(=O)n(-c1ccc(F)cc1)c(=O)n2Cc1cc(=O)n2ccccc2n1	inactive: 94%
Nc1c(C(=O)Nc2ccc(Cl)c(C(F)(F)F)c2)sc2nc(-c3ccncc3)ccc12	inactive: 81%
CCOC(=O)C1CCN(c2nc(-c3ccc(Br)cc3)nc3ccccc23)CC1	inactive: 83%
Cc1ccc2c(c1)C(c1ccccc1)N(C(=O)c1ccc(OC(C)C)cc1)CC(=O)N2 (stereo unspecified)	inactive: 59%
Cc1c2cnn(-c3ccccc3)c(=O)c2c(C)n1CC(=O)NCc1ccccc1Br	inactive: 91%
Cc1cccc(CCNC(=O)Cn2ncc3c(=O)oc4ccccc4c32)c1	inactive: 88%

SMILES	survival
CC(=O)c1cccc(NC(=O)C(Cc2ccccc2)NS(=O)(=O)c2ccc(Br)s2)c1 (stereo unspecified)	inactive: 116%
O=C(Nc1ccc(Cl)cc1)N1CCC(CN2CCCC2)CC1	inactive: 84%
COc1ccc(Cn2cc(C(=O)c3ccc(OC)cc3)c(=O)c3cc4c(cc32)OCCO4)cc1	inactive: 70%
COc1ccc(OC)c(NC(=O)c2cn3c4c(ccc(Cl)c4c2=O)OC(C)C3)c1 (stereo unspecified)	inactive: 87%
O=C(Nc1ccccc1)Nc1nncs1	inactive: 101%
CCc1ccc(-n2c(=O)c3ccc(C(=O)NCCc4ccccc4)cc3n(CC(N)=O)c2=O)cc1	inactive: 86%
O=C(Nc1nnc(S(=O)(=O)N2CCOCC2)s1)c1cccc(F)c1	inactive: 80%
CCCCOc1ccc(C(=O)NCC2(N3CCN(C)CC3)CCCCC2)cc1	inactive: 80%
COc1cc(-c2nc3sccn3c2Nc2cccc(C)c2)ccc1O	inactive: 54%
Cc1ccc(O)c(-c2ccnc3cc(-c4ccc(Cl)cc4)nn23)c1	inactive: 86%
Cc1coc2cc3oc(=O)c(CC(=O)NCc4ccc(F)cc4)c(C)c3cc12	inactive: 78%
Cc1ccc(-n2c(=O)c3c4c(sc3n(Cc3ccccc3F)c2=O)CCC4)cc1C	inactive: 152%
Cc1nc(-c2ccc(Cl)cc2)sc1CCNC(=O)c1ccco1	inactive: 116%
Oc1ccccc1-c1nc(/C=C/c2ccccc2Cl)no1	inactive: 67%
Cc1ccccc1NC(=O)CCc1c(C)nn(-c2ccc(N3CCCCC3)nn2)c1C	inactive: 78%
COc1ccccc1OCCCn1c(C2CC(=O)N(c3ccccc3Cl)C2)nc2ccccc21 (stereo unspecified)	inactive: 75%
Cc1ccc(Cn2c(=O)n(Cc3nc(-c4ccccc4)no3)c(=O)c3cc4c(cc32)OCO4)cc1	inactive: 71%
CCN(CCCNC(=O)c1nn(-c2ccc(C)cc2)c(=O)c2c1c1ccccc1n2C)c1ccccc1	inactive: 82%
COc1cccc(CNC(=O)CCS(=O)(=O)c2cc3c(cc2C)NC(=O)CO3)c1	inactive: 78%

SMILES	survival
CCOc1ccc(CNC(=O)CCn2nc(C)c3c(C)n(-c4ccccc4)nc3c2=O)cc1	inactive: 131%
Cc1ccc(C)c(N2CCN(C(=O)CCCn3ncn4c(cc5occc54)c3=O)CC2)c1	inactive: 57%
COc1ccc(C(=O)Nc2ccc(-c3cc4ccccc4oc3=O)c(C)c2)cc1Br	inactive: 91%
CN(C)c1ccc(CNC(=O)CCCN2C(=O)CCn3nc(-c4cccn4C)cc32)cc1	inactive: 73%
CCCc1nc2sc3c(N4CCCCC4)ncnc3c2c2c1CCCC2	active: 12%
Cc1ccc(CCNC(=O)CCn2c(=O)c3cccn3c3ccc(F)cc32)cc1	active: 39%
COc1cccc(C2NC(=O)NC(C)=C2C(=O)Nc2ccccc2C)c1OC (stereo unspecified)	inactive: 92%
CN(C)Cn1c(O)c(N=NC(=O)c2ccccc2)c2ccccc21	inactive: 93%
Cc1cc(=O)n2nc(N3CCC(C(=O)Nc4ccc(C(C)C)cc4)CC3)sc2n1	inactive: 98%
CC1(C)CC(=O)C=C(Nc2ccccc2NC(=O)c2cnccn2)C1	inactive: 83%
CC(=O)c1cccc(NC(=O)CCc2c(C)nc3c(-c4ccc(F)cc4)c(C)nn3c2C)c1	inactive: 76%
C=CCSc1nc2ccccc2n1C(=O)c1ccc2c(c1)OCO2	inactive: 92%
O=C(Nc1ccccc1)N1CCN(C(=O)c2nsc3ccccc23)CC1	inactive: 88%
Cn1c(C(C(=O)NCC2CCCO2)N(C(=O)Cn2nnc3ccccc32)c2ccc3c(c2)OCO3)nc2ccccc21 (stereo unspecified)	inactive: 81%
CCCS(=O)(=O)c1ncc(Cl)c(C(=O)N(Cc2ccccc2)Cc2ccco2)n1	active: 40%
CCOc1ccc(-c2oc3ccccc3c(=O)c2O)cc1OCC	inactive: 72%
COc1ccccc1NC(=O)C1=C(C)Nc2c(C(=O)Nc3ccc(F)cc3)cnn2C1c1ccc(Cl)cc1 (stereo unspecified)	inactive: 81%
O=C(Nc1ccc(S(=O)(=O)Nc2ccccc2)cc1)N1CCCC1	inactive: 87%
